Reference: PubChem BioAssay (NCATS)
Values joined by “and” are separate entries in the source; they are usually repeats but may differ in a detail not shown here. Identical values can stand only once. The list shows a part of the results. The main result of the screen is listed elsewhere. These columns were measured beside it and carry no call. For some assays here: The list favours compounds with an active or inconclusive main result. For some assays here: The note in brackets gives the kind of curve behind each potency; many fits are weak.

What was measured:
[1] = qHTS Assay for Lipid Storage Modulators (AID 1519); settings: Drosophila S3 cells, BODIPY lipid droplet/cell ratio, laser cytometry, cells loaded with oleic acid
Summary of the method: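 Cells seeded at 5,000 per well were treated with compounds over a concentration series and loaded with oleic acid (400 uM, as added). Lipid droplet fluorescence (488 nm excitation, 500-530 nm channel) was read by laser-scanning cytometry and normalized to 20 uM Triacsin C.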

[2] = A High-Content qHTS Against Drug Library for the Identification of Small Molecules that Inhibit DYT1 Early Onset Primary Dystonia-Associated Cell Pathology (AID 1645839); settings: HEK293 Flp-In EGFP-delE TorsinA, punctate imaging, 48 h; measured here: cell count cytotoxicity
Summary of the method: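 Induced EGFP-delE TorsinA cells are imaged after 48 h of compound treatment. Punctate fusion-protein distribution gives the %pathology value, while nuclei counts flag toxicity. Wild-type EGFP-hTOR1A cells define the normal pattern.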

[3] = qHTS for identification of novel therapeutic agents for treatment of microphthalmiaassociated transcription factor (MiT) renal cell carcinoma (RCC) (AID 1963991); settings: CellTiter-Glo, 48 h; for z-score: stronger effect = lower value
Summary of the method: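 Curves over 11 concentrations were fitted to CellTiter-Glo luminescence, scaled between empty wells (0%) and DMSO (100%) viability. Cells were UOK109, UOK124 and UOK145 TFE3-fusion RCC lines at 500/well, exposed 48 hours at 37 C.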

[4] = qHTS assay for small molecule antagonists of peroxisome proliferator-activated receptor delta signaling (AID 588535); settings: HEK293T PPARd-UAS-bla, beta-lactamase FRET ratio, 18 h; 460 nm channel;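 also: cells co-treated with a PPAR-delta agonist as stimulator during compound exposure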
Summary of the method: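 Inhibition of PPAR-delta response element-driven beta-lactamase expression is measured in HEK293T cells exposed to a compound titration series for 18 hrs at 37 C. Half-maximal inhibition comes from Hill equation fitting.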

[5] = qHTS assay for small molecule agonists of retinoid X receptor alpha signaling (AID 588544); settings: HEK293T RXRa-UAS-bla, beta-lactamase reporter, 18 h; 530 nm emission
[6] = qHTS drug screen for cell cycle checkpoint inhibitors in PARPi-resistant BRCA-mutant ovarian cancer cell lines. (AID 1963452); settings: PEO1/OlaR viability, CellTiter-Glo luminescence, 96 h
Summary of the method: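 PEO1, PEO4 and PEO1/OlaR ovarian cancer cells, 600 per well, exposed 96 h at 37C to a dilution series. Viability read by CellTiter-Glo luminescence, normalized to DMSO and empty wells; activity summarized as Z-AUC.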

[7] = qHTS Assay for Modulators of Human Peripheral Myelin Protein 22 (PMP22) Expression/Activity (AID 1967); settings: Cell-based PMP22 reporter, dual-color luciferase ratio; measured here: red reporter channel AC50; EF-alpha promoter control reporter in MSC80 mouse Schwann cells
Summary of the method: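 MSC80 mouse Schwann cells stably carrying Pmp22 promoter–green click beetle luciferase plus EF-alpha–red luciferase control were dosed for 24h at 37 °C. Dual-colour luminescence was filter-overlap corrected; %Activity came from green/red ratio versus untreated cells.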

[8] = target: Catechol O-methyltransferase (Homo sapiens) (UniProt P21964); experiment: Confirmatory Screen for Target Class Profiling of Small Molecule Inhibitors of Methyltransferases (AID 1745852); settings: MTase-Glo luminescence, SAH detection, recombinant enzyme; measured here: COMT inhibition potency;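 also: inhibitor potency for blocking SAH production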
Sequence of UniProt P21964 (P21964 whole entry, looked up): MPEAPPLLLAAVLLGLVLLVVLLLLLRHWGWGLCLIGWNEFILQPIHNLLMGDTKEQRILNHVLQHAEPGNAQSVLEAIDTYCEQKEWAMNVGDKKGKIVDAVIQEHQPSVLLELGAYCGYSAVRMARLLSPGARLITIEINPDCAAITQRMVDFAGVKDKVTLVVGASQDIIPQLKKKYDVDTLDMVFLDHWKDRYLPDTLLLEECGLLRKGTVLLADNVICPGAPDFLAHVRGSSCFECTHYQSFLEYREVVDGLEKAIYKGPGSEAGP

[9] = target: Nicotinamide N-methyltransferase (Homo sapiens) (UniProt P40261); experiment: as above; settings: MTase-Glo luminescence, SAH detection, recombinant enzyme; measured here: NNMT inhibition potency
Sequence of UniProt P40261 (P40261 whole entry, looked up): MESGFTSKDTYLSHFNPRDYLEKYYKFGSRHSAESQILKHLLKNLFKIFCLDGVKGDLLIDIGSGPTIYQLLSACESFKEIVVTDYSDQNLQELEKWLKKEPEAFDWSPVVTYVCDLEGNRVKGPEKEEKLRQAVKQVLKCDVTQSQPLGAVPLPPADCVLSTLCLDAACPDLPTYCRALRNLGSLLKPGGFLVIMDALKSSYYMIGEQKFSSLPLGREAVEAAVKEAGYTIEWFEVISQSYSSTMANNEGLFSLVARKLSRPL

[10] = qHTS Assay for Inhibitors of PDE-IV (AID 607); settings: HEK293 ACTOne CNG channel cells, membrane potential fluorescence; measured here: parental cell counter-screen;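 also: parental cells stimulated with forskolin 10 µM plus RO 20-1724 100 µM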
Summary of the method: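 Cell-based read-out of cAMP via a modified cyclic nucleotide-gated channel and membrane potential dye (535/590 nm) in HEK293 cells expressing PDE4 endogenously. Compounds tested up to 22.9 uM final; 100 uM RO 20-1724 reference.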

[11] = S16 Schwann cell PMP22 intronic element beta-lactamase assay (AID 624044); settings: S16 rat Schwann cells, PMP22 element beta-lactamase FRET, 24 h; measured here: 460 nm blue channel; also: nearly all actives have a fitted effect of over 15% in size
Summary of the method: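 Beta-lactamase reporter under a PMP22 intronic regulatory element in stable S16 rat Schwann cells; 24 h compound exposure. 460 nm blue signal normalized between DMSO (0%) and potassium clavulanate, with 535 nm FRET tracking viability; curves classed by r2 and response.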

[12] = Nrf2 qHTS screen for inhibitors: Validation (AID 493153); settings: A549 ARE-Fluc reporter, 18-24 h; AC50: CellTiter-Fluor fluorescence read, measured here: cytotoxicity CellTiter-Fluor AC50; viability change: measured here: cytotoxicity max response
Summary of the method: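 Concentration-response on A549 ARE_Fluc reporter cells exposed 18-24 h at 37 C, 5% CO2. Cytotoxicity read first by CellTiter-Fluor fluorescence (Ex 405/Em 525), then Nrf2 inhibition by BugLite luminescence after 15 min.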

[13] = qHTS assay for small molecule antagonists of peroxisome proliferator-activated receptor gamma signaling (AID 588537); settings: HEK293 PPARg-UAS-bla, beta-lactamase ratio, antagonist mode; measured here: W460 blue channel
Summary of the method: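 Compounds are tested as concentration series for inhibition of rosiglitazone-driven (50 nM) reporter expression in GeneBLAzer PPAR-gamma-UAS-bla HEK293 cells. After 16 h at 37 C, CCF4 substrate is added for 2 h at room temperature and blue/green fluorescence is measured.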

[14] = qHTS assay for small molecule antagonists of vitamin D receptor signaling (AID 588541); settings: HEK293T VDR-UAS-bla, beta-lactamase ratio, antagonist mode; measured here: W460 blue channel (cell viability)
[15] = qHTS Validation Assay to Find Inhibitors of Chronic Active B-Cell Receptor Signaling (AID 485345); settings: ABC-DLBCL cells, chronic BCR signaling reporter; measured here: CBG/CBR ratio read-out
Summary of the method: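 TMD8 ABC-DLBCL cells with dox-inducible green luciferase–IκBα fusion and red native luciferase; compounds 46 uM–3 nM, 4 h at 37C with doxycycline in 0.5% FBS IMDM. Green/red ratio normalized to basal and 10 uM MG-132.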

[16] = measured here: cell count channel max response
[17] = measured here: lipid (BODIPY) channel AC50
[18] = measured here: lipid channel max response
[19] = TFE3-RCC UOK109 viability, measured here: UOK109 Z-AUC
[20] = TFE3-RCC viability, measured here: UOK124 Z-AUC
[21] = TFE3-RCC viability, measured here: UOK145 Z-AUC
[22] = measured here: PEO1 parental viability
[23] = measured here: cell number channel AC50
[24] = TFE3-RCC viability, measured here: UOK124 cell viability
[25] = TFE3-RCC viability, measured here: UOK145 cell viability
Tags tell the direction and shape of the fitted curve.

COc1ccnc(CS(=O)c2nc3ccc(OC(F)F)cc3[nH]2)c1OC (stereo unspecified)
max response [1, 16]: 23.5% | AC50 [1, 17]: 20 µM [rising, partial curve] | max response [1, 18]: 43.7% | AC50 [2]: 35.5 µM [rising, single point] | z-score [3, 19]: 0.237 | z-score [3, 20]: 0.532 | z-score [3, 21]: -0.0816

CCN(CC)CCOc1ccc(/C(=C(\Cl)c2ccccc2)c2ccccc2)cc1
max response [1, 16]: -25.9% | AC50 [1, 17]: 20 µM [falling, single point] | max response [1, 18]: -35.7% | max response [4]: 87.7% | max response [5]: 18.4% | AC50 [2]: 12.6 µM [falling, single point] | AC50 [6, 22]: 17.4 µM [falling, single point] | AC50 ([6]; measured here: PEO4 viability): 17.4 µM [falling, partial curve]

C[C@H](NC(=O)/C(C#N)=C/c1ccc(O)c(O)c1)c1ccccc1
max response [1, 16]: 72.4% and 30.5% | AC50 [1, 23]: 31.6 µM [rising, partial curve, poor fit] and 25.1 µM [falling, partial curve, poor fit] | max response [1, 18]: 6.93% and 29.1% | AC50 [7]: 37.9 µM [falling, partial curve, poor fit] | IC50 [8]: 12.2 µM [rising, full curve] | IC50 [9]: 27.3 µM [falling, partial curve]

COc1ccc(C(Cl)=C(c2ccc(OC)cc2)c2ccc(OC)cc2)cc1
max response [1, 16]: 21.7% | AC50 [1, 17]: 35.5 µM [rising, single point] | max response [1, 18]: 52.5% | AC50 [2]: 6.31 µM [rising, partial curve]

CCCCN(CCCC)CCC(O)c1cc2c(Cl)cc(Cl)cc2c2cc(C(F)(F)F)ccc12 (stereo unspecified)
max response [1, 16]: -29.6% | AC50 [1, 17]: 12.6 µM [falling, partial curve, poor fit] | max response [1, 18]: -33.1% | AC50 [2]: 7.94 µM [falling, partial curve, poor fit] | AC50 [6, 22]: 17.4 µM [falling, single point] | AC50 ([6]; measured here: PEO4 viability): 21.9 µM [falling, single point]

CN1CCC(=C2c3ccccc3CC(=O)c3sccc32)CC1
max response [1, 16]: 21.5% | AC50 [1, 17]: 28.2 µM [rising, partial curve, poor fit] and 22.4 µM [rising, partial curve] | max response [1, 18]: 50% and 37.7% | AC50 [7]: 75.7 µM [falling, single point] | AC50 [2]: 35.5 µM [falling, single point] | z-score [3, 19]: -0.261 | z-score [3, 20]: -0.24 | AC50 [3, 24]: 18.7 µM [falling, partial curve] | z-score [3, 21]: -0.489 | AC50 [3, 25]: 26.4 µM [falling, single point]

CCN(CC)CCOc1ccc(Cc2ccccc2)cc1
AC50 [10]: 15.8 µM [rising, single point] | max response [1, 16]: 26.1% | AC50 [1, 17]: 39.8 µM [rising, single point] | max response [1, 18]: 37.5% | z-score [3, 19]: 0.834 | z-score [3, 20]: 0.552 | z-score [3, 21]: 0.684

CCCCOc1ccc(CC(=O)NO)cc1
max response [1, 16]: 27.3% | AC50 [1, 17]: 22.4 µM [rising, partial curve, poor fit] | max response [1, 18]: 51.1% | AC50 [2]: 10 µM [falling, partial curve, poor fit] | AC50 [6, 22]: 0.616 µM [falling, partial curve, poor fit] | AC50 ([6]; measured here: PEO4 viability): 17.4 µM [falling, single point] | z-score [3, 19]: 0.784 | z-score [3, 20]: 0.23 | z-score [3, 21]: 0.509 | AC50 [3, 25]: 23.5 µM [falling, partial curve, poor fit]

C[C@@]12C(=O)OC(=O)[C@]1(C)[C@H]1CC[C@@H]2O1
max response [1, 16]: -26.3% | AC50 [1, 17]: 12.6 µM [falling, partial curve, poor fit] | max response [1, 18]: -42.9% | AC50 [11]: 3.37 µM [falling, full curve] | AC50 [6, 22]: 6.92 µM [falling, partial curve] | AC50 ([6]; measured here: PEO4 viability): 4.9 µM [falling, partial curve]

COc1ccc2c(c1)c(CC(=O)O)c(C)n2C(=O)c1ccc(Cl)cc1
max response [1, 16]: 18.3% and 64.9% | AC50 [1, 23]: 2.82 µM [rising, full curve, poor fit] | max response [1, 18]: 24.8% and 68.8% | AC50 [7]: 84.9 µM [falling, single point] | viability change [12]: -7.03% | max response [4]: 160% and 377% | AC50 [13]: 44.7 µM [rising, single point] | AC50 [14]: 6.31 µM [rising, full curve] | max response [5]: 100% and 110% | z-score [3, 19]: 0.855 | z-score [3, 20]: 0.307 | z-score [3, 21]: -0.309 | AC50 [3, 25]: 14.8 µM [falling, partial curve]

CC(=O)[C@H]1CC[C@H]2[C@@H]3CCC4=CC(=O)CC[C@]4(C)[C@H]3CC[C@]12C
max response [1, 16]: 79.2% | AC50 [1, 17]: 12.6 µM [rising, partial curve] | max response [1, 18]: 124% | AC50 [15]: 16.4 µM [falling, partial curve] | z-score [3, 19]: 1.13 | z-score [3, 20]: 0.232 | AC50 [3, 24]: 18.7 µM [falling, partial curve, poor fit] | z-score [3, 21]: -2.84 | AC50 [3, 25]: 4.18 µM [falling, full curve]
